Each structure is given as a SMILES string. About 220 (0.56%) of roughly 39,000 compounds showed activity. This is one part of the list.
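Further: static incubation at 37 °C against the wild-type strain, values averaged over two biological replicates.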

In this test the test system is Escherichia coli K-12 BW25113. The experiment in a line: relative growth (OD600 normalised to plate interquartile mean) (fraction); higher = less growth inhibition, active = 0.2 or less. The settings on record: 50 µM; LB; incubation time: overnight (16-24 h).
In the case of `C[C@H](CO)N1C[C@H](C)[C@H](CN(C)C(=O)C2CCOCC2)Oc2cc(C3=CCCCC3)ccc2S1(=O)=O`, the relative growth is inactive: 0.988. With `C[C@H]1CN([C@@H](C)CO)C(=O)Cc2cc(NC(=O)CCC(F)(F)F)ccc2O[C@H]1CN(C)Cc1ccc(-c2ccccc2)cc1`, the relative growth was inactive: 0.972.

Consider `CC[C@@H](C)C(=O)O[C@H]1[C@H](OC(=O)CC(C)C)O[C@H](CO)[C@@H](O)[C@@H]1O`, for which the relative growth is inactive: 0.978. Regarding `CC(C)CC#Cc1ccc2c(c1)O[C@H](CN(C)C(=O)c1ccncc1)[C@H](C)CN([C@@H](C)CO)S2(=O)=O`, the relative growth is inactive: 0.982.

Turning to `C[C@@H]1CCCCO[C@H](CN(C)Cc2ccc(C(=O)Nc3ccccc3N)cc2)[C@@H](C)CN([C@@H](C)CO)C(=O)c2cc(NS(=O)(=O)c3ccc(Cl)cc3)ccc2O1`, the relative growth is inactive: 0.99.

In the case of `CNC[C@H]1OCCCC[C@@H](C)Oc2ccc(NC(=O)Nc3cccc4ccccc34)cc2C(=O)N([C@H](C)CO)C[C@@H]1C`, the relative growth was inactive: 0.978.

As for `C[C@H](C(=O)N(C)C[C@H]1OCc2ccccc2-c2c(n(C)c3ccccc23)C(=O)N([C@H](C)CO)C[C@H]1C)c1ccccc1`, the relative growth was inactive: 0.983. In the case of `O=C(NO)c1ccc(-c2cn(CC[C@@H]3OC(=O)[C@H](Cc4ccccc4)N4CC5=CC(=O)[C@H](C6CC6)[C@H]5[C@H]34)nn2)s1` it was inactive: 0.995; in that of `Cl.O=c1n(CCCN2CCN(c3cccc(Cl)c3)CC2)nc2ccccn12`, inactive: 1.06.

As to `COC(=O)c1c2oc(c1C(=O)OC)C(=O)N[C@H](Cc1ccccc1)Cn1cc(nn1)[C@H](Cc1ccccc1)NC(=O)N[C@@H](CO)CC2`, the relative growth is inactive: 0.992. To `Cc1ccc(S(=O)(=O)N(C)C[C@@H]2Oc3ccc(NC(=O)CCN4CCOCC4)cc3C(=O)N([C@@H](C)CO)C[C@@H]2C)cc1` belongs inactive: 0.981.

Consider `Cc1ccc(S(=O)(=O)Nc2ccc3c(c2)C(=O)N([C@@H](C)CO)C[C@H](C)[C@@H](CN(C)Cc2ccc(-c4ccccc4)cc2)O3)cc1`, for which the relative growth was inactive: 0.982. In the case of `C[C@@H]1CCCCO[C@@H](CN(C)Cc2ccc3c(c2)OCO3)[C@@H](C)CN([C@H](C)CO)C(=O)c2cc(NC(=O)Nc3ccc(C(F)(F)F)cc3)ccc2O1` it was inactive: 1.01; in that of `Cc1noc(C)c1NC(=O)N(C)C[C@H]1Oc2ncc(C#CCN(C)C)cc2C(=O)N([C@H](C)CO)C[C@@H]1C`, inactive: 1. In the case of `C[C@@H]1CN([C@@H](C)CO)C(=O)c2cc(NC(=O)C3CCCCC3)ccc2O[C@@H](C)CCCCO[C@H]1CN(C)C(=O)Nc1ccc2c(c1)OCO2` it was inactive: 1.01; in that of `C[C@H]1CN([C@@H](C)CO)C(=O)c2cccc(NS(=O)(=O)c3cn(C)cn3)c2O[C@@H]1CN(C)C(=O)NC1CCCCC1`, inactive: 0.974. In the case of `C[C@@H]1CN([C@@H](C)CO)C(=O)c2cc(NC(=O)Cc3cn(C)c4ccccc34)ccc2O[C@H]1CN(C)CC1CCCCC1` it was inactive: 0.988; in that of `CO[C@H]1CN(C)C(=O)c2ccc(NS(=O)(=O)CC(F)(F)F)cc2OC[C@H](C)N(C(=O)c2ccc3c(c2)OCO3)C[C@H]1C`, inactive: 1.03; in that of `Cc1ccc(S(=O)(=O)N[C@H](C(=O)NCCn2cc(CCC(=O)NO)nn2)C(C)C)cc1`, inactive: 1.03. As to `Fc1ccc(-c2nc3ccc4ccccc4c3c3c2CCC3)cc1`, the relative growth was inactive: 1.01. In the case of `COc1ccc(NC(=O)N(C)C[C@H]2Oc3c(NC(=O)Nc4ccc(C(F)(F)F)cc4)cccc3C(=O)N([C@H](C)CO)C[C@H]2C)cc1` it was inactive: 0.892; in that of `CN(C)Cc1cn(CC[C@H]2CC[C@@H](NC(=O)Cc3cccnc3)[C@@H](CO)O2)nn1`, inactive: 1.04; in that of `C[C@H](CO)N1C[C@H](C)[C@@H](CN(C)CC2CCCCC2)OCCCC[C@H](C)Oc2ccc(N(C)C)cc2C1=O`, inactive: 0.999. To `CCNC(=O)C[C@H]1C=C[C@H](NC(=O)C2CCOCC2)[C@@H](CO)O1` belongs inactive: 1; to `C[C@H](CO)N1C[C@H](C)[C@H](CN(C)C(=O)CN(C)C)Oc2cc(-c3cncnc3)ccc2S1(=O)=O`, inactive: 0.986; to `C[C@@H]1CN([C@H](C)CO)C(=O)c2cccc(NC(=O)c3ccc(-c4nccs4)cc3)c2O[C@@H]1CN(C)Cc1ccc(C(=O)O)cc1`, inactive: 1. To `O=C(CCO[C@@H]1O[C@H](CO)[C@@H](O)[C@H](O)[C@H]1O)c1ccc(O)cc1` belongs inactive: 0.993; to `OC[C@H]1O[C@@H](O)[C@H](O)[C@@H](O)[C@H]1O`, inactive: 1.05.

As to `C[C@@H]1CCCCO[C@H](CN(C)C(=O)NC2CCCCC2)[C@H](C)CN([C@@H](C)CO)C(=O)c2cc(NC(=O)c3ccccc3)ccc2O1`, the relative growth is inactive: 1.01. To `C[C@H](CO)N1C[C@H](C)[C@@H](CN(C)S(=O)(=O)c2ccccc2)Oc2ccc(NC(=O)Cn3cnnn3)cc2CC1=O` belongs inactive: 0.98; to `CN1CCN(C(=O)C[C@@H]2CC[C@@H]3[C@@H](COc4ccc(NC(=O)C5CCCCC5)cc4C(=O)N3C)O2)CC1`, inactive: 0.989. Take `COc1ccc(S(=O)(=O)N(C)C[C@@H]2OCCCC[C@@H](C)Oc3ccc(NC(=O)Nc4ccccc4)cc3C(=O)N([C@@H](C)CO)C[C@@H]2C)cc1`: the relative growth is inactive: 1.01.

Take `COCCOC(=O)N1C(=O)[C@@]2(c3cc(C#CCC(C(=O)OC)C(=O)OC)ccc31)[C@H](C(=O)Nc1nc3ccccc3s1)[C@H]1C(=O)O[C@H](c3ccccc3)[C@H](c3ccccc3)N1[C@@H]2c1ccccc1OCCO`: the relative growth was inactive: 1.02. On to `Cc1c(-c2ccc(C(N)=O)c3[nH]c4cc(C(C)(C)O)ccc4c23)cccc1-n1cnc2ccccc2c1=O`, for which the relative growth was inactive: 1.04. In the case of `COc1ccccc1CN1C(=O)c2ccccc2[C@](Cc2ccccc2I)(C(=O)NC2CC2)[C@@H]1c1ccc(CO)cc1` it was inactive: 1.02; in that of `C[C@H](CO)N1C[C@H](C)[C@H](CN(C)C(=O)NC2CCCCC2)Oc2c(NC(=O)C3CCOCC3)cccc2C1=O`, inactive: 1.01; in that of `C[C@@H]1CN([C@@H](C)CO)C(=O)c2cc(NC(=O)Nc3ccc(F)cc3)ccc2O[C@H]1CN(C)S(C)(=O)=O`, inactive: 1.03. For the molecule `Cc1noc(C)c1S(=O)(=O)Nc1cccc2c1O[C@@H](CN(C)C(=O)NC1CCCCC1)[C@@H](C)CN([C@H](C)CO)C2=O`, the relative growth is inactive: 0.984. In the case of `CC(C)NC(=O)Nc1cccc2c1O[C@@H](CN(C)C(=O)Nc1ccc3c(c1)OCO3)[C@@H](C)CN([C@@H](C)CO)C2=O` it was inactive: 0.991; in that of `C[C@@H]1CCCCO[C@@H](CN(C)Cc2ccc(Cl)c(Cl)c2)[C@H](C)CN([C@H](C)CO)C(=O)c2cc(NC(=O)Nc3cccc4ccccc34)ccc2O1`, inactive: 1.05.

With `CC(C)NC(=O)N(C)C[C@@H]1Oc2ccc(NC(=O)NC3CCCCC3)cc2C(=O)N([C@@H](C)CO)C[C@@H]1C`, the relative growth was inactive: 0.992. To `CCN(CC)C(=O)C1(c2ccccc2)CC1CN.Cl` (centres undefined) belongs inactive: 1.

Regarding `COc1ccc(NC(=O)N(C)C[C@H]2Oc3ccc(NS(C)(=O)=O)cc3C(=O)N([C@H](C)CO)C[C@@H]2C)cc1`, the relative growth is inactive: 0.99.

For `C[C@@H]1CN([C@@H](C)CO)C(=O)c2cc(NC(=O)CCN3CCOCC3)ccc2O[C@H]1CN(C)S(=O)(=O)c1ccc(Cl)cc1`, the relative growth was inactive: 1.02. To `COc1ccc(S(=O)(=O)Nc2ccc3c(c2)C(=O)N([C@H](C)CO)C[C@H](C)[C@@H](CN(C)CC2CCCCC2)OCCCC[C@@H](C)O3)cc1` belongs inactive: 0.972; to `C[C@H](CO)N1C[C@H](C)[C@@H](CN(C)C(=O)Nc2cccc3ccccc23)OCCCC[C@H](C)Oc2ccc(NS(=O)(=O)c3cccs3)cc2C1=O`, inactive: 0.966. To `C[C@H]1CN([C@@H](C)CO)C(=O)Cc2cc(NC(=O)Nc3ccc4c(c3)OCO4)ccc2O[C@@H]1CN(C)S(C)(=O)=O` belongs inactive: 0.982; to `Nc1c2c(=O)[nH]c(=O)cc-2[nH]n1-c1ccccc1`, inactive: 0.972; to `FC(F)(F)c1nnc2n1CCNC2`, inactive: 1.01. To `CCOP(=O)(CC(=O)O[C@H]1[C@H](OC(=O)Nc2ccccc2-c2ccccc2)[C@H](OC(=O)Nc2ccccc2-c2ccccc2)[C@@H](OC)O[C@@H]1COC(=O)NCCCCCC(=O)NO)OCC` belongs inactive: 0.993; to `C[C@H](CO)N1C[C@H](C)[C@H](CN(C)S(=O)(=O)c2cccs2)OCCCC[C@H](C)Oc2ccc(NC(=O)c3ccccc3)cc2C1=O`, inactive: 1.04. `C[C@@H]1CN([C@H](C)CO)C(=O)c2cc(NC(=O)Nc3cccc4ccccc34)ccc2O[C@@H]1CN(C)C(=O)NC1CCCCC1`: the relative growth is inactive: 1. To `C[C@@H]1CN([C@H](C)CO)C(=O)Cc2cc(NS(=O)(=O)c3cccs3)ccc2O[C@H]1CN(C)S(=O)(=O)c1cccs1` belongs inactive: 0.991; to `C[C@H]1CCCCO[C@H](CN(C)Cc2ccc(C(=O)O)cc2)[C@@H](C)CN([C@@H](C)CO)C(=O)c2cc(NC(=O)C3CCCCC3)ccc2O1`, inactive: 0.981; to `Cc1cccc2c1OCC[C@@H](N)C2=O`, inactive: 1.02. Turning to `O=C(C1=C[C@H](c2csc3ccccc23)C[C@H](OCc2ccc(CO)cc2)O1)N1CCN(Cc2ccccc2)CC1`, the relative growth is inactive: 1. `O=C(N[C@H]1CCN(C(=O)c2cc(C(F)(F)F)cc(C(F)(F)F)c2)[C@H](Cc2ccc(Cl)cc2)C1)c1ccnc2ccccc12`: the relative growth was inactive: 1.05. For the molecule `C[C@@H]1CN([C@H](C)CO)S(=O)(=O)c2ccc(C#CCN(C)C)cc2O[C@@H]1CN(C)C(=O)CN(C)C`, the relative growth is inactive: 1.02. As to `CC(C)NC(=O)Nc1ccc2c(c1)C(=O)N([C@@H](C)CO)C[C@@H](C)[C@@H](CN(C)C(=O)Nc1ccc(F)cc1)OCCCC[C@@H](C)O2`, the relative growth is inactive: 0.993.

The values are drawn from the supplement of paper PMC9446081.
